{
  "source": "PubChem BioAssay (NCATS)",
  "note": "This list was built around the results that the source calls inconclusive (neither active nor inactive); the mix of calls is not that of the screen. No potency is given beside an inconclusive call; the fits are too rough. The source made the active and inactive calls. The call rests on the fitted dose curve; in most records, active means well fitted inhibition curve with a large enough effect; inconclusive means small, poorly fitted or top-dose-only effect; inactive means flat fitted curve, though single readings scatter. Potency means the concentration at half of the fitted maximal effect; tags describe the fitted curve by direction and shape.",
  "data": [
    {"molecular_target": "Aldehyde dehydrogenase, mitochondrial (Homo sapiens) (UniProt P05091)", "assay": "qHTS for Inhibitors of the Aldehyde Dehydrogenase Family (ALDH2) Primary screen (AID 2061308); further: nearly all actives have a fitted effect of over 55% in size", "conditions": "ALDH2 enzyme inhibition qHTS, 1536-well; series mostly up to 56 µM", "values": [
      {"smiles": "O=c1c2ccccc2nc2sc(NCc3ccc(Sc4ccccc4)cc3)nn12", "Potency": "inconclusive [inhibitor, single point]"},
      {"smiles": "CC(=O)Nc1sc2c(c1-c1ccc(OC(F)(F)F)cc1)CCNC2", "Potency": "inconclusive [inhibitor, partial curve]"},
      {"smiles": "Cc1[nH]cnc1C1CCN(c2nc3cccc4c3n2CCC4=O)CC1", "Potency": "inactive"},
      {"smiles": "CC(=O)N1CCN(c2cccc(Nc3nn4c(=O)c5ccccc5nc4s3)c2)CC1", "Potency": "inconclusive [inhibitor, partial curve, poor fit]"},
      {"smiles": "Cc1ccc(OCCn2c(CCNC(=O)c3ccc(C(C)(C)C)cc3)nc3ccccc32)cc1", "Potency": "inconclusive [inhibitor, partial curve, poor fit]"},
      {"smiles": "CC(=O)NC1C(OC(C)(C)C2CCC3(C)C=C(C4CCC5C4(C)CC(O)C4OC(C(C)(C)O)CCC45C)CCC3O2)OC(CO)C(O)C1O", "note": "(stereo not given)", "Potency": "inconclusive [inhibitor, partial curve, poor fit]"},
      {"smiles": "CCOC(=O)c1nn(-c2ccc(OC)cc2)c(=O)c2c(N)scc12", "Potency": "inconclusive [inhibitor, partial curve, poor fit]"},
      {"smiles": "O=C(O)c1cccc(-n2cccc2/C=C2/NC(=O)N(c3cccc(Cl)c3)C2=O)c1", "Potency": "inconclusive [inhibitor, partial curve, poor fit]"},
      {"smiles": "CN1CCN(c2cccc(Nc3nn4c(=O)c5ccc(C(F)(F)F)cc5nc4s3)c2)CC1", "Potency": "inconclusive [inhibitor, full curve, poor fit]"},
      {"smiles": "Fc1ccc(Nc2cc(-c3ccccc3)nc(-c3ccncc3)n2)cc1F", "Potency": "inactive"}
    ]}
  ]
}
